Experimental data reported in the supplement of paper PMC12217912.
The list shows a part of the results. The full chains were built here from the parent and the listed change. Inactive controls read about 0.05.

B1: TEV protease; numbered along this chain (parent)
chain: MGESLFKGPRDYNPISSSICHLTNESDGHTTSLYGIGFGPFIITNKHLFRRNNGTLVVQSLHGVFKVKDTTTLQQHLVDGRDMIIIRMPKDFPPFPQKLKFREPQREERICLVTTNFQTKSMSSMVSDTSCTFPSGDGIFWKHWIQTKDGQCGSPLVSTRDGFIVGIHSASNFTNTNNYFTSVPKNFMELLTNQEAQQWVSGWRLNADSVLWGGHKVFMVKPEEPFQPVKEATQL

Variants of: B1
Assay: raw area under fraction-flipped curve 0-4 h after induction (AUC4h, not background-subtracted), DNA-recorder readout of cleavage of the substrate (dimensionless); higher = more cleavage of the substrate by the protease variant
Details: temperature: 34 °C; time window: 0-4 h after rhamnose induction
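Also: Bxb1 expression induced with 0.2% (w/v) L-rhamnose at OD600 near 0.5, cultures sampled hourly, flipped fraction per protease–substrate barcode pair counted by paired-end Illumina sequencing.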

Row | Variant | area with substrate ENLCFQS | area with substrate ENLDFQS | area with substrate ENLFFQS | area with substrate ENLHFQS | area with substrate ENLIFQS | area with substrate ENLKFQS | area with substrate ENLLFQS | area with substrate ENLNFQS | area with substrate ENLPFQS | area with substrate ENLQFQS | area with substrate ENLRFQS | area with substrate ENLSFQS | area with substrate ENLVFQS | area with substrate ENLGFQS | area with substrate ENLMFQS | area with substrate ENLWFQS | area with substrate ENLEFQS | area with substrate ENLTFQS
1 | V217Q | 0.0503 | 0.0722 | 0.0498 | 0.0605 | 0.0714 | 0.0598 | 0.0601 | 0.0565 | 0.0476 | 0.0619 | 0.0628 | 0.0456 | 0.0581 | – | – | – | – | –
2 | F38P | – | 0.0329 | 0.0407 | 0.0386 | – | 0.0425 | 0.0386 | 0.0611 | – | 0.0315 | – | 0.0295 | 0.0513 | 0.0405 | 0.0443 | 0.04 | – | –
3 | L22W | – | 0.0466 | 0.0533 | 0.051 | 0.0527 | 0.036 | – | 0.0533 | 0.0359 | – | 0.0457 | 0.0398 | – | – | – | – | 0.0552 | –
4 | T181M | – | 0.0606 | 0.0893 | 0.0572 | 0.062 | 0.0659 | 0.0624 | 0.0619 | – | – | 0.0921 | 0.112 | – | 0.0527 | 0.0736 | – | 0.0671 | –
5 | S18K | – | 0.0378 | 0.0994 | 0.074 | – | 0.0667 | 0.0451 | 0.0578 | 0.0708 | 0.0672 | 0.0534 | 0.0502 | 0.087 | 0.0546 | – | 0.0535 | 0.0556 | –
6 | K142T | – | 0.066 | 0.081 | 0.0642 | 0.0907 | 0.0738 | 0.0714 | 0.0622 | 0.0607 | 0.0607 | 0.0725 | 0.0696 | 0.0661 | 0.0699 | 0.0875 | – | 0.09 | –
7 | I36D | – | 0.0339 | 0.0453 | 0.0419 | 0.0194 | 0.0477 | 0.0404 | 0.0527 | 0.042 | 0.0525 | 0.0355 | 0.0379 | 0.0462 | 0.046 | – | 0.0518 | 0.0448 | –
8 | H62V | – | 0.0659 | 0.0812 | 0.0668 | – | 0.0766 | – | 0.0732 | 0.0104 | 0.0651 | – | 0.0577 | 0.0835 | – | – | – | 0.0657 | –
9 | R102A | – | 0.0583 | 0.0873 | 0.0529 | 0.0679 | 0.0597 | 0.0335 | 0.0631 | 0.0493 | 0.0587 | – | – | 0.0302 | – | 0.0503 | 0.0724 | 0.057 | –
10 | E231T | 0.0684 | 0.0669 | 0.105 | 0.0639 | – | 0.0822 | – | 0.0588 | 0.0732 | 0.0683 | 0.0551 | – | 0.0578 | 0.0729 | – | – | 0.0588 | 0.0752
11 | S169F | – | 0.0487 | 0.0568 | 0.06 | – | 0.0546 | – | 0.0589 | 0.0756 | – | 0.0608 | 0.057 | 0.069 | – | – | 0.0488 | 0.059 | –
12 | M219E | 0.0803 | 0.0696 | 0.0666 | 0.103 | – | 0.0615 | 0.0582 | 0.0713 | 0.0643 | – | 0.0151 | 0.0606 | 0.0623 | – | 0.0902 | 0.0669 | 0.0628 | –
13 | Q105M | – | 0.0665 | 0.0936 | 0.0755 | – | 0.0753 | 0.0829 | 0.0731 | 0.0545 | 0.0716 | – | 0.0549 | 0.0906 | 0.0661 | – | 0.0561 | 0.0503 | –
14 | E224F | 0.0697 | 0.0539 | – | 0.0671 | 0.104 | 0.0724 | – | – | – | 0.066 | 0.0638 | – | 0.0663 | – | – | – | 0.0638 | –
15 | F180C | – | 0.0596 | 0.0707 | 0.0669 | – | – | 0.0583 | 0.0511 | 0.067 | 0.0614 | 0.0634 | – | – | 0.072 | – | – | 0.0538 | –
16 | P155L | – | 0.0508 | 0.0613 | 0.051 | 0.0569 | 0.0436 | 0.058 | 0.0593 | 0.0469 | 0.0389 | 0.0467 | 0.0525 | 0.0522 | 0.0473 | 0.0552 | 0.0463 | 0.0444 | 0.0687
17 | E107A | – | 0.0702 | 0.108 | 0.0711 | 0.0712 | 0.0377 | – | 0.0732 | 0.0647 | 0.073 | – | 0.065 | – | 0.0716 | – | 0.074 | – | –
18 | K185T | – | 0.0649 | 0.0805 | 0.083 | – | 0.0743 | 0.0672 | 0.0684 | 0.0468 | 0.0673 | 0.0687 | 0.063 | 0.0981 | 0.0696 | 0.0796 | – | 0.0603 | 0.0625
19 | T233G | 0.0866 | 0.0651 | – | 0.0882 | – | – | – | 0.054 | 0.0619 | – | – | 0.0649 | – | 0.0483 | – | 0.0755 | 0.0733 | –
20 | K221I | 0.0632 | 0.0721 | 0.072 | 0.0485 | 0.0718 | 0.09 | 0.0617 | 0.0693 | 0.0711 | 0.0555 | 0.0692 | 0.0496 | 0.0912 | 0.0693 | 0.0717 | 0.0426 | 0.0679 | 0.0566
21 | K221Q | 0.0815 | 0.0846 | 0.0721 | 0.0506 | – | 0.0703 | – | 0.0598 | 0.0626 | – | 0.0812 | 0.0676 | – | – | – | – | – | –
22 | D11S | – | 0.0663 | 0.0808 | 0.0672 | 0.0884 | 0.0808 | 0.0856 | 0.0758 | 0.0603 | 0.0681 | 0.083 | 0.0588 | 0.126 | – | 0.0783 | 0.0639 | 0.0682 | –
23 | T114F | – | 0.0545 | 0.0878 | 0.0695 | 0.0907 | 0.0939 | 0.0589 | – | 0.0667 | 0.0674 | 0.099 | – | 0.0922 | – | – | 0.0739 | 0.0647 | –
24 | T71W | – | 0.06 | 0.0877 | 0.0701 | – | 0.078 | 0.0617 | 0.0613 | – | 0.0642 | 0.0271 | 0.0576 | – | 0.0676 | – | – | 0.0558 | –
25 | P94I | – | 0.0653 | 0.103 | 0.0872 | 0.0837 | 0.0782 | – | 0.0638 | 0.0586 | – | – | 0.0627 | – | – | – | – | 0.0999 | –
26 | G166R | – | 0.0586 | 0.0621 | 0.053 | 0.0552 | 0.0515 | 0.0446 | 0.0577 | 0.0665 | 0.0594 | 0.0665 | 0.0496 | 0.052 | 0.0499 | – | 0.0592 | 0.0694 | –
27 | D82Y | – | 0.0594 | 0.066 | – | 0.0523 | 0.0387 | 0.0565 | 0.0628 | 0.053 | 0.0591 | – | – | – | 0.0478 | – | 0.0567 | – | –
28 | I145D | – | 0.0685 | 0.0523 | 0.0682 | 0.0602 | 0.059 | 0.0343 | 0.054 | – | 0.0678 | 0.0575 | 0.0586 | – | – | – | 0.0374 | 0.0677 | –
